Several values for one entry are separate records, joined by “and”; a condition that tells them apart may be missing. Identical values can stand only once. Screen size: about 16,000 compounds; about 260 (1.6%) were called active. The inconclusive results got no clear call from the source; some entries with a clear call stand among them for comparison. Calls come from the whole dose curve; as a rule, active = well fitted inhibition curve with a large enough effect; inconclusive = small, poorly fitted or top-dose-only effect; inactive = no such curve, though single readings can be large or run the other way. Potencies beside an inconclusive call are fits to weak or partial responses and may not hold up.
Biological target: Rap guanine nucleotide exchange factor 4 (Homo sapiens) (UniProt Q8WZA2)
Experiment: Validation qHTS for antagonist of cAMP-regulated guanine nucleotide exchange factor 4 (EPAC2); note: nearly all actives have a fitted effect of over 40% in size
Conditions: EPAC2 Rap1B BODIPY-GDP exchange, fluorescence; activity, negative = inhibition: at 112 µM (top of the series)
Summary of the method: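 Normalized against a 6.5 mM cAMP agonist control, compounds were tested on 100 nM EPAC2 exchanging Rap1B-bound BODIPY-GDP (250 nM) for 50 uM GDP. Fluorescence drop (ex 480, em 540 nm) was tracked at room temperature over 30 min at 5-min intervals.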
Potency is the fitted concentration of half-maximal effect; tags give direction and shape of the fitted curve.

UniProt Q8WZA2, sequence (Q8WZA2 whole entry, looked up): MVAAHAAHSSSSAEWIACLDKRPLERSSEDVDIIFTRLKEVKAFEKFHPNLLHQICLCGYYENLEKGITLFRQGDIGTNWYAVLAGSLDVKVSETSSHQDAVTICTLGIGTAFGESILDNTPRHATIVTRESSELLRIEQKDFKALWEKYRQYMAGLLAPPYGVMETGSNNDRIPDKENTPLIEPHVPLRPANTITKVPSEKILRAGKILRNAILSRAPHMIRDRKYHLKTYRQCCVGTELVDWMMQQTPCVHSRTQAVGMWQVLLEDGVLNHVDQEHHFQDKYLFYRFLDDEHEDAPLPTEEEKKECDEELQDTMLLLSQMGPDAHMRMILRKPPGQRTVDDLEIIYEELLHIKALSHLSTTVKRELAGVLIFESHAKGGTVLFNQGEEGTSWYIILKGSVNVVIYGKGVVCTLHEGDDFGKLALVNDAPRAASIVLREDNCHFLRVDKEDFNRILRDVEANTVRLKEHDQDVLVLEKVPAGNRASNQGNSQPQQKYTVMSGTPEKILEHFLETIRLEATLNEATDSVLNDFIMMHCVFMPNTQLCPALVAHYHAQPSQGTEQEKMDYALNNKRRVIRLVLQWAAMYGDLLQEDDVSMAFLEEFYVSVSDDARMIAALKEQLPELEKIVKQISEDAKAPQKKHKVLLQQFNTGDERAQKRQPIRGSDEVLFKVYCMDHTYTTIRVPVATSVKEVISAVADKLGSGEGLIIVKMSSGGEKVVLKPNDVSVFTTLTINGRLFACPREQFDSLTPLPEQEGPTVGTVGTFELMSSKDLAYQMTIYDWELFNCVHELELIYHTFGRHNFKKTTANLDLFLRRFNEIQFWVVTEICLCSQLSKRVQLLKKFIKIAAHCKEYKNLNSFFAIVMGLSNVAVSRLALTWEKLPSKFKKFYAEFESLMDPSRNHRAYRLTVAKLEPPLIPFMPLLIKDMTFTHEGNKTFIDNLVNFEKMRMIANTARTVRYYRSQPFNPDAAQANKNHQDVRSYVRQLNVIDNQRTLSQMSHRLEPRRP

SMILES | Potency | activity, negative = inhibition
O=c1[nH]c2cc([N+](=O)[O-])c([N+](=O)[O-])cc2[nH]c1=O | inconclusive: 89.1 µM [inhibitor, partial curve, poor fit] and inconclusive: 89.1 µM [inhibitor, single point] | –
CCCC(=O)OC[C@@H](OC(=O)CCC)[C@@H](OC(=O)CCC)[C@H](Cn1c2nc(=O)[nH]c(=O)c-2nc2cc(C)c(C)cc21)OC(=O)CCC | inactive | –
Cc1cccc(N(C)C(=S)Oc2ccc3c(c2)CCC3)c1 | inactive | –
CNC[C@H](O)c1ccc(O)c(O)c1 | inconclusive: 89.1 µM [inhibitor, single point] | –
COC(=O)C1CCN(Cc2ccc3c(c2)CN(C(=O)c2cc(-c4ccc(C)o4)[nH]n2)CCO3)CC1 | inconclusive: 39.8 µM [inhibitor, partial curve, poor fit] | –
COc1cccc(C(=O)N(Cc2cc3ccc(C)cc3nc2N(C)C)C2CC2)c1OC | active: 14.1 µM | –
O=C(C[N+]12CCCc3cccc(c31)CCC2)c1ccc2ccc3cccc4ccc1c2c34 | inconclusive: 89.1 µM [inhibitor, single point] | –
COc1cc(-c2noc(C)c2C#Cc2ccccn2)cc(OC)c1OC | inconclusive: 31.6 µM [inhibitor, full curve, poor fit] | –
C=CCNC(N)=S | inconclusive: 0.501 µM [inhibitor, full curve, poor fit] | –
Cn1c(=O)c(CCc2ccccc2)nc2cncnc21 | inconclusive: 89.1 µM [inhibitor, single point] | –
C=CC(C1=CC(=O)C(OC)=CC1=O)c1ccc(OC)cc1 (stereo not drawn) | inconclusive: 44.7 µM [inhibitor, partial curve] | –
Oc1c(I)cc(Cl)c2cccnc12 | inconclusive: 3.98 µM [inhibitor, full curve, poor fit] | –
c1cc2cc(-c3c(-c4ccc5c(c4)OCO5)noc3-c3ccsc3)ccc2[nH]1 | inconclusive: 89.1 µM [inhibitor, partial curve, poor fit] | –
COc1ccc(C(=O)N2CCC[C@@]3(CCN(C(=O)NC(C)C)C3)C2)cc1 | inactive | –
Cn1cnc([N+](=O)[O-])c1Sc1ncnc2nc[nH]c12 | inconclusive: 12.6 µM [inhibitor, partial curve] | –
CC(C)[C@H](CO)Nc1nc(Nc2ccc(C(=O)O)c(Cl)c2)c2ncn(C(C)C)c2n1 | inconclusive: 112 µM [inhibitor, partial curve, poor fit] | –
COCC(=O)Nc1cc(C(=O)N2CCC(c3ccccc3)CC2)cc2nc(-c3ccccc3)n(C)c12 | inconclusive: 1.41 µM [inhibitor, full curve, poor fit] | –
c1cc2c(cc1C1CCCCC1)c1c3n2CCN[C@H]3CCC1 | inconclusive: 50.1 µM [inhibitor, partial curve] | –
FC(F)(F)c1ccccc1-c1ccc2ncnc(N3CCOCC3)c2c1 | inconclusive: 28.2 µM [inhibitor, full curve, poor fit] | –
CC(C)CC(=O)N1C/C=C\C[C@@H](c2ccc(Cl)cc2)N(Cc2ccc(Cl)cc2)C(=O)[C@@H]1Cc1ccccc1 | inactive | –
c1cncc(OC2CCN(Cc3ccc4c(c3)CN(Cc3ccc5c(c3)OCO5)CCO4)CC2)c1 | inconclusive: 11.2 µM [inhibitor, partial curve, poor fit] | –

SMILES | Potency | activity, negative = inhibition
O=c1onc2cnc3ccccc3n12 | inconclusive: 79.4 µM [inhibitor, single point] | –
CN(C)c1ccc(/C=C/c2cc[n+](C)c3ccccc23)cc1 | inconclusive: 50.1 µM [inhibitor, partial curve] | –
Cn1ccnc1C1CCCCN1C(=O)CN1Cc2ccccc2OC(c2ccccc2F)C1 (stereo not drawn) | inconclusive: 79.4 µM [inhibitor, single point] | –
CC(C)Cc1nc2cc(NS(=O)(=O)N(C)C)cc(C(=O)N3CCSCC3)c2n1C | inactive | –
COC(=O)[C@@H]1CC2=CC(=O)CC[C@]2(C)[C@@]23O[C@@H]2C[C@@]2(C)[C@@H](CC[C@@]24CCC(=O)O4)[C@H]13 | inconclusive: 0.631 µM [inhibitor, full curve, poor fit] | –
COc1ccc2c(c1)-c1nc(-n3ncc(C(=O)N(C)CCO)c3C3CC3)ncc1CC2 | inconclusive: 89.1 µM [inhibitor, single point] | –
Cc1cc(/C=C/c2ccnc3ccccc23)ccc1N(C)C | inactive | –
COc1cc(=O)n2c(c1C(=O)NCc1ccco1)CCN(Cc1cccc(C)n1)CC2 | inconclusive: 100 µM [inhibitor, single point] | –
CC[C@@H]1[C@H]2CCCC(=O)N3CC[C@@H](C[C@@H]1OC(=O)Nc1ccccc1)[C@@H]23 | inconclusive: 14.1 µM [inhibitor, full curve] | –
OCCN(CCO)c1nc(N2CCCCC2)c2nc(N(CCO)CCO)nc(N3CCCCC3)c2n1 | inconclusive: 17.8 µM [inhibitor, partial curve] | –
Cc1ccc(C(=O)Nc2cccc(-c3nc(CNC(=O)c4cccc(N(C)C)c4)c(C)o3)c2)s1 | inactive | –
O=C(N/N=C\c1ccccc1O)c1ccccc1O | inconclusive: 79.4 µM [inhibitor, partial curve] | –
Cc1cnc(-n2ncc(C(=O)NCc3ccncc3)c2-c2cccs2)nc1-c1ccc(F)cc1 | inactive | –
CCC(C)[C@H]1COCCS(=O)(=O)N1Cc1ccc(Cl)cc1Cl (stereo partly drawn) | active: 28.2 µM | –
Cc1cnc(C)c(-c2cccc3c2OC(CNC(=O)C2(c4ccc(Cl)cc4)CC2)C3)n1 (stereo not drawn) | inconclusive: 50.1 µM [inhibitor, partial curve, poor fit] | –
C[C@@H](CN1CCC(Cc2ccccc2)CC1)[C@@H](O)c1ccc(O)cc1 | inconclusive: 89.1 µM [inhibitor, single point] | –
CCCCC[C@H](O)CC[C@H]1[C@H](O)CC(=O)[C@@H]1CCCCCCC(=O)O | – | inactive: -18.3% [at 11.4 µM]
COC(=O)C1=C(C#N)NC(C)=C(C(=O)OC(C)C)C1c1cccc([N+](=O)[O-])c1 (stereo not drawn) | inconclusive: 44.7 µM [inhibitor, partial curve] | –
N#Cc1cc2nc(O)c(O)nc2cc1[N+](=O)[O-] | inconclusive: 50.1 µM [inhibitor, partial curve, poor fit] | –
COc1ccc(F)c(CN2CCC3(CCC(CNC(=O)c4cc(C)nn4C)O3)CC2)c1 (stereo not drawn) | inactive | –
C=CC(C)(C)c1[nH]c2ccccc2c1C1=C(O)C(=O)C(c2c[nH]c3c(CC=C(C)C)cccc23)=C(O)C1=O | active: 44.7 µM | –

SMILES | Potency | activity, negative = inhibition
Cc1cc(NC(=O)Nc2ccc3c(ccn3C)c2)sn1 | inconclusive: 79.4 µM [inhibitor, partial curve] | –
C[C@@H](CN=[N+]=[N-])CN1CC[C@H](O)CCC1=O | inconclusive: 39.8 µM [inhibitor, single point] | –
O=C(C[n+]1cc(Br)cc2ccccc21)c1ccc(F)cc1 | inconclusive: 28.2 µM [inhibitor, full curve, poor fit] | –
CC(=O)N1CCC[C@H]1C(=O)NCC1Cc2cc(Cl)cc(-c3ccc4[nH]ccc4c3)c2O1 (stereo partly drawn) | inconclusive: 100 µM [inhibitor, single point] | –
OC(C1=C/C(=C\c2ccncc2)c2ccccc21)c1ccncc1 (stereo not drawn) | – | inconclusive: -33.6% [inhibitor]
CCCCCCCCCCCC[n+]1ccc(/C=C/c2c[nH]c3ccccc23)c2ccccc21 | inconclusive: 79.4 µM [inhibitor, single point] | –
O=C(c1cnccn1)N1CCC2(CCCN(c3ccccn3)C2)CC1 | inactive | –
CN1CCC(=C2c3ccccc3Sc3ccccc32)CC1 | inconclusive: 50.1 µM [inhibitor, partial curve, poor fit] | –
COc1ccc(CNc2ncnc3ccc(-c4cccnc4)cc23)c(OC)c1 | inconclusive: 79.4 µM [inhibitor, partial curve, poor fit] | –
COc1ccc(S[C@@H](CCN2CC[C@H](C)CCC2=O)c2ccccc2)cc1 | inconclusive: 17.8 µM [inhibitor, partial curve, poor fit] | –
Cl/C(=C\n1cncn1)c1ccc(Cl)cc1Cl | inconclusive: 50.1 µM [inhibitor, partial curve] | –
CCC(=O)NC1Cc2ccccc2C(c2ccccc2)C1 (stereo not drawn) | inconclusive: 50.1 µM [inhibitor, partial curve, poor fit] | –
COc1cccc(-c2nccc(NCc3cnc(C)cn3)n2)c1 | inactive | –
O=C(OC[C@H]1O[C@](O)(COC(=O)c2cccnc2)[C@@H](OC(=O)c2cccnc2)[C@@H]1OC(=O)c1cccnc1)c1cccnc1 | inactive | –
COc1ccc(S(=O)(=O)NCc2nc(N3CCCC3)c3cccc(C)c3n2)cc1OC | inactive | –
Cc1cnc(-n2ncc(C(=O)NCc3ccccn3)c2C2CC2)nc1-c1cccs1 | inconclusive: 17.8 µM [inhibitor, partial curve, poor fit] | –
CNc1ncnc2ccc(-c3cccc(NS(C)(=O)=O)c3)cc12 | inactive | –
O=C1C[C@H]2C=CCc3cccc(c32)CN1Cc1ccccc1 | inconclusive: 11.2 µM [inhibitor, partial curve, poor fit] | –
Cc1ccc2oc(-c3ccccc3)cc(=O)c2c1 | inconclusive: 50.1 µM [inhibitor, partial curve] | –
N[C@@H](Cc1cc(I)c(Oc2ccc(O)c(I)c2)c(I)c1)C(=O)O | inconclusive: 63.1 µM [inhibitor, single point] | –
O=C(/C=C/c1ccc(O)cc1)c1ccc(O)cc1O | inconclusive: 89.1 µM [inhibitor, partial curve, poor fit] and inconclusive: 50.1 µM [inhibitor, partial curve] | –

From PubChem BioAssay AID1645886 (National Center for Advancing Translational Sciences (NCATS), 2021)
